Experimental findings from the supplement of paper PMC11417369 are described below.

The other results are listed elsewhere or left out.

For the assay, the system named is PfAP2-HC AP2 domain (GST-tagged). In words: gcPBM binding intensity (ln(normalized median fluorescence intensity)); higher = stronger DNA binding. In a few lines: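 Each value is the highest Masliner-normalised natural-log median intensity across replicate spots of either orientation of a probe. The probes were primer-extended double-stranded 36-bp intergenic genomic sequences on an Agilent 4 × 180k array, alongside negative controls, exposed for 1 h to GST-tagged P. falciparum DNA-binding domains expressed in E. coli. Bound protein was picked up with Alexa488 anti-GST antibody and scanned at 488 nm.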
For “TATATGGTATGTATTACACACATATCACATATATAT [CACACA_site3045]”, the “gcPBM binding intensity (ln)” value worked out at 10.

Take “TGGTAAATTGAGAATCGTACATTAAAAAACATAAAA [XGTACX_site3253]”: the “gcPBM binding intensity (ln)” value turned out to be 9.59.

As to “GGAATGGTACATGATACACACACGCACATATAAATA [CACACA_site7581]”, the “gcPBM binding intensity (ln)” value was 10.1.

For “AAGAAAAAAAAGATAATAATAATAATAATAAAATGA [TGCATGCA_negctrl_site398]”, the “gcPBM binding intensity (ln)” value is 9.82.

For the sequence “ATTTATTAAAAGAAATGTACAGAAAATGTTTGGAAT [XGTACX_site7187]”, the “gcPBM binding intensity (ln)” value came to 9.69.

In the case of “ATTTAATATCACAATATATTTTTTACCCTTATCAGC [CACACA_negctrl_site491]”, the “gcPBM binding intensity (ln)” value stood at 9.47.

Regarding “AAAGAATTGTATAAAAGTACATATTTGTTTGTTTTA [XGTACX_site7380]”, the “gcPBM binding intensity (ln)” value stood at 9.69.

As to “TTTTTTTCATAAATTAGGTAATGTCGCAGGGGGACA [TGCATGCA_negctrl_site556]”, the “gcPBM binding intensity (ln)” value stood at 9.42.

On to “TAAAAAATAAAATACACACACATATATATATATATA [CACACA_site1323]”, for which the “gcPBM binding intensity (ln)” value is 10.1.

As to “GAGGGAAAAAATAATCGTACAAAGAAAAAAAAAAAT [XGTACX_site7361]”, the “gcPBM binding intensity (ln)” value was 9.75.

Turning to “TATATTCTTTTTTTAACACACAAAAAAAATAAAATA [CACACA_site1898]”, the “gcPBM binding intensity (ln)” value was determined as 9.42.

On to “AAAAAAATTAAAGATTGTACTTGATTTTTCATTTTA [XGTACX_site6685]”, for which the “gcPBM binding intensity (ln)” value is 9.5.

Regarding “GACTGAACAACATAATGTACATTTATAAGTATATAT [XGTACX_site3813]”, the “gcPBM binding intensity (ln)” value came out at 9.74.

Turning to “AGTAGTATGGAGAAAAGTACATAGTATCTGATAACC [XGTACX_site2040]”, the “gcPBM binding intensity (ln)” value is 9.81.

Turning to CTTTAATATATTTAAGTGCAAAACTAATATGTAAAG, the “gcPBM binding intensity (ln)” value was 9.49.

With “TATATATTATATATATGTACTTATTCATATATATAA [XGTACX_site3860]”, the “gcPBM binding intensity (ln)” value worked out at 9.49.

With “AAAGAAAAAGAAAAAGAAAAAATAAAATAAAATAAA [CACACA_negctrl_site872]”, the “gcPBM binding intensity (ln)” value came to 9.38.

Regarding “TATTTAAAAACAAAAAGTACTAATATATATTTATAC [XGTACX_site1422]”, the “gcPBM binding intensity (ln)” value stood at 9.56.

Consider “TTGAATTATAAGAATAAACACACAAGCTTAAAAAAA [CACACA_site8318]”, for which the “gcPBM binding intensity (ln)” value is 9.71.

In the case of “GAATTATAAATTATAGTGCATAAAATTATGGCATAA [GTGCAC_site9938]”, the “gcPBM binding intensity (ln)” value was 9.67.

For “TCAAAACATTATTCCATACACACCATACTTTTTAAT [CACACA_site2770]”, the “gcPBM binding intensity (ln)” value worked out at 9.82.

Turning to “TATTTAAATTTGTATAATGGACGAATTATATAGAAA [GTGCAC_negctrl_site650]”, the “gcPBM binding intensity (ln)” value was found to be 9.45.

“AATAACCACGGACACACACACATATATATATATATA [CACACA_site5873]”: the “gcPBM binding intensity (ln)” value amounted to 10.9.

Take “TTAAGAAACAAAGAAAGTACACAACATAATATAGAA [XGTACX_site477]”: the “gcPBM binding intensity (ln)” value turned out to be 9.92.

“TTAATAATAAAAAGGAGTACACTAATATACTATAAA [XGTACX_site2346]”: the “gcPBM binding intensity (ln)” value came out at 9.64.

For the sequence “ATATAATATATATATAAACACACAAAAAAAATTATA [CACACA_site8434]”, the “gcPBM binding intensity (ln)” value is 9.97.

With “AATAAAATCATCTATACACACAAAAAAAATAAGAAA [CACACA_site2101]”, the “gcPBM binding intensity (ln)” value was determined as 9.9.

For “CTGTAAAAAATATAAACACACATAGAAATATATAAA [CACACA_site340]”, the “gcPBM binding intensity (ln)” value worked out at 9.91.

“CCTCATAAGTTCTTATGTACGTATTGTTCACCTTTA [XGTACX_site6640]”: the “gcPBM binding intensity (ln)” value came out at 9.72.

As to “TACAACCTTATAATTAGTACTTAGTTATGCTGTAAA [XGTACX_site6052]”, the “gcPBM binding intensity (ln)” value was determined as 9.5.

For “TTTAATTTTTTTTATAGTACATAAAAAATAAAAAAA [XGTACX_site5631]”, the “gcPBM binding intensity (ln)” value worked out at 9.07.

Consider “TTTATTTGTGCATATACACACTTAAATATGTTTATT [CACACA_site7772]”, for which the “gcPBM binding intensity (ln)” value was determined as 9.95.

For ATTATAATACTTTGTATGCACTAATCAATTATTAAA, the “gcPBM binding intensity (ln)” value is 9.5.

For the sequence “TTTGTTATGGTTTTCTCACACATATATATATATATA [CACACA_site4617]”, the “gcPBM binding intensity (ln)” value is 9.83.

Regarding “ACATAAAATTGGAGCAAACACACAAGGTTGAAATTA [CACACA_site505]”, the “gcPBM binding intensity (ln)” value is 10.1.

Turning to “CCGATATAATGGAAAACACACAAAAGATATTTATAT [CACACA_site7293]”, the “gcPBM binding intensity (ln)” value amounted to 9.72.

Turning to “AGATCATAATATTATACACACATTATATATATGTAA [CACACA_site8419]”, the “gcPBM binding intensity (ln)” value is 9.75.

As for “TGGAAAGTTATTAACACACACATATAAATATTTATA [CACACA_site6173]”, the “gcPBM binding intensity (ln)” value was 10.1.

As for “GGAATAACCAGACACACACACACATATATATATATA [CACACA_site3541]”, the “gcPBM binding intensity (ln)” value was 10.9.

As for “TATATATAATATTATACACACATATCTGCATAATAT [CACACA_site4202]”, the “gcPBM binding intensity (ln)” value was found to be 9.89.

On to “AAAAACCATTCGCACACACACATAATCTATAATATA [CACACA_site6782]”, for which the “gcPBM binding intensity (ln)” value is 11.1.

As for “AAGTACCATATAGGCACACATATATATATATATATA [CACACA_site3282]”, the “gcPBM binding intensity (ln)” value turned out to be 9.64.

Turning to “AAAAACGAAAAAAATACACACCTGAAAAGATATGTA [CACACA_site4644]”, the “gcPBM binding intensity (ln)” value came out at 9.9.

For the sequence “GTATATATGTATATGTGTACATATATTTTATAATAT [XGTACX_site5703]”, the “gcPBM binding intensity (ln)” value came to 9.73.

As to “GTTGTTATATAAAGGAGTACATAATAACACAAATAT [XGTACX_site615]”, the “gcPBM binding intensity (ln)” value stood at 9.76.
